# Some of the results follow. Repeats are few or missing, and single values can be far off.
# Key:
# Assay in all cases: cell count relative to DMSO control; melanoma cells; higher = more viable cells
# MeWo = settings: library dose: low library concentration; 72 h
# RPMI7951 = settings: library dose: low library concentration; 72 h
# RVH-421 = settings: library dose: low library concentration; 72 h
# SkMel28 = settings: library dose: low library concentration; 72 h
# SkMel2 = settings: library dose: low library concentration; 72 h
# SkMel30 = settings: library dose: low library concentration; 72 h
# SkMel5 = settings: library dose: low library concentration; 72 h
# UACC257 = settings: library dose: low library concentration; 72 h
# UACC62 = settings: library dose: low library concentration; 72 h
# WM115 = settings: library dose: low library concentration; 72 h
# WM1716 = settings: library dose: low library concentration; 72 h
# WM1745 = settings: library dose: low library concentration; 72 h
# WM3526 = settings: library dose: low library concentration; 72 h
# WM3619 = settings: library dose: low library concentration; 72 h
# WM451Lu = settings: library dose: low library concentration; 72 h
# 501Mel = settings: library dose: standard library concentration; 72 h
# A101D = settings: library dose: standard library concentration; 72 h
# A2058 = settings: library dose: standard library concentration; 72 h
# A375 = settings: library dose: standard library concentration; 72 h
smiles,measurement,setting,value
"N#CC[C@H](C1CCCC1)n1cc(-c2ncnc3[nH]ccc23)cn1 [ruxolitinib] + O=S(=O)(c1ccccc1)N(CC(F)(F)F)c1ccc(C(O)(C(F)(F)F)C(F)(F)F)cc1 [T0901317] (first compound 1 µM, partner dose 1.4 µM)",cell count,MeWo,112%
same,cell count,RPMI7951,103%
same,cell count,RVH-421,92.4%
same,cell count,SkMel28,101%
same,cell count,SkMel2,103%
same,cell count,SkMel30,90.9%
same,cell count,SkMel5,93.1%
same,cell count,UACC257,115%
same,cell count,UACC62,106%
same,cell count,WM115,102%
same,cell count,WM1716,106%
same,cell count,WM1745,101%
same,cell count,WM3526,111%
same,cell count,WM3619,105%
same,cell count,WM451Lu,92.6%
"N#CC[C@H](C1CCCC1)n1cc(-c2ncnc3[nH]ccc23)cn1 [ruxolitinib] + O=c1cc(-c2cccc3c2Sc2ccccc2S3)oc(N2CCOCC2)c1 [KU55933] (first compound 5 µM, partner dose 5 µM)",cell count,501Mel,83.2%
same,cell count,A101D,106%
same,cell count,A2058,68%
"CC[C@]1(O)C[C@H]2CN(CCc3c([nH]c4ccccc34)[C@@](C(=O)OC)(c3cc4c(cc3OC)N(C=O)[C@H]3[C@@](O)(C(=O)OC)[C@H](OC(C)=O)[C@]5(CC)C=CCN6CC[C@]43[C@@H]65)C2)C1 [vincristine] + O=C(Nc1ccccc1)c1cc([N+](=O)[O-])ccc1Cl [GW9662] (first compound 0.0005 µM, partner dose 10 µM)",cell count,501Mel,38.5%
same,cell count,A101D,30.2%
same,cell count,A2058,8.99%
same,cell count,A375,107%
"N#CC[C@H](C1CCCC1)n1cc(-c2ncnc3[nH]ccc23)cn1 [ruxolitinib] + O=C1NC(=O)/C(=C/c2ccc(-c3ccc(F)cc3O)o2)S1 [AS252424] (first compound 5 µM, partner dose 5 µM)",cell count,501Mel,123%
same,cell count,A101D,130%
same,cell count,A2058,83.2%
same,cell count,A375,150%
"N#CC[C@H](C1CCCC1)n1cc(-c2ncnc3[nH]ccc23)cn1 [ruxolitinib] + Cc1cc([N+](=O)[O-])ccc1NS(=O)(=O)c1cc(Cl)ccc1Cl [FH535] (first compound 5 µM, partner dose 5 µM)",cell count,501Mel,75.6%
same,cell count,A101D,73.3%
same,cell count,A2058,64.9%
same,cell count,A375,101%
"CC[C@]1(O)C[C@H]2CN(CCc3c([nH]c4ccccc34)[C@@](C(=O)OC)(c3cc4c(cc3OC)N(C=O)[C@H]3[C@@](O)(C(=O)OC)[C@H](OC(C)=O)[C@]5(CC)C=CCN6CC[C@]43[C@@H]65)C2)C1 [vincristine] + O=c1cc(-c2cccc3c2Sc2ccccc2S3)oc(N2CCOCC2)c1 [KU55933] (first compound 0.0005 µM, partner dose 5 µM)",cell count,501Mel,63.1%
same,cell count,A101D,28.9%
same,cell count,A2058,11.2%
same,cell count,A375,109%
"Cc1cc(Nc2cc(N3CCN(C)CC3)nc(Sc3ccc(NC(=O)C4CC4)cc3)n2)n[nH]1 [Tozasertib] + COc1ccc(COc2ccc(Cc3cnc(N)nc3N)cc2OC)cc1 [GW2580] (first compound 0.03 µM, partner dose 5 µM)",cell count,501Mel,83.6%
same,cell count,A101D,107%
same,cell count,A2058,79.1%
same,cell count,A375,94%
"CC[C@]1(O)C[C@H]2CN(CCc3c([nH]c4ccccc34)[C@@](C(=O)OC)(c3cc4c(cc3OC)N(C=O)[C@H]3[C@@](O)(C(=O)OC)[C@H](OC(C)=O)[C@]5(CC)C=CCN6CC[C@]43[C@@H]65)C2)C1 [vincristine] + COc1ccc2c(c1)CCC1C2CCC2(C)C(NCCCCCCN3C(=O)C=CC3=O)CCC12 [U73122] (first compound 0.0005 µM, partner dose 2 µM)",cell count,501Mel,119%
same,cell count,A101D,47.5%
same,cell count,A2058,48.8%
same,cell count,A375,75.3%
